From paper PMC4336329 (PLoS ONE, 2015)
Hit rate of the full screen: of about 310,000 compounds, about 14,000 (4.5%) showed an effect of 50% or more. Effects have a minus sign here. The list shows a part of the results.

target: human ether-à-go-go-related gene (hERG) potassium channel (human, UniProt Q12809); assay: primary screen, population patch clamp on CHO cells stably expressing hERG
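Note: peak tail current of the secondary pulse compared with the same well before compound.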

Sequence of human ether-à-go-go-related gene (hERG) potassium channel (Q12809 whole entry, looked up): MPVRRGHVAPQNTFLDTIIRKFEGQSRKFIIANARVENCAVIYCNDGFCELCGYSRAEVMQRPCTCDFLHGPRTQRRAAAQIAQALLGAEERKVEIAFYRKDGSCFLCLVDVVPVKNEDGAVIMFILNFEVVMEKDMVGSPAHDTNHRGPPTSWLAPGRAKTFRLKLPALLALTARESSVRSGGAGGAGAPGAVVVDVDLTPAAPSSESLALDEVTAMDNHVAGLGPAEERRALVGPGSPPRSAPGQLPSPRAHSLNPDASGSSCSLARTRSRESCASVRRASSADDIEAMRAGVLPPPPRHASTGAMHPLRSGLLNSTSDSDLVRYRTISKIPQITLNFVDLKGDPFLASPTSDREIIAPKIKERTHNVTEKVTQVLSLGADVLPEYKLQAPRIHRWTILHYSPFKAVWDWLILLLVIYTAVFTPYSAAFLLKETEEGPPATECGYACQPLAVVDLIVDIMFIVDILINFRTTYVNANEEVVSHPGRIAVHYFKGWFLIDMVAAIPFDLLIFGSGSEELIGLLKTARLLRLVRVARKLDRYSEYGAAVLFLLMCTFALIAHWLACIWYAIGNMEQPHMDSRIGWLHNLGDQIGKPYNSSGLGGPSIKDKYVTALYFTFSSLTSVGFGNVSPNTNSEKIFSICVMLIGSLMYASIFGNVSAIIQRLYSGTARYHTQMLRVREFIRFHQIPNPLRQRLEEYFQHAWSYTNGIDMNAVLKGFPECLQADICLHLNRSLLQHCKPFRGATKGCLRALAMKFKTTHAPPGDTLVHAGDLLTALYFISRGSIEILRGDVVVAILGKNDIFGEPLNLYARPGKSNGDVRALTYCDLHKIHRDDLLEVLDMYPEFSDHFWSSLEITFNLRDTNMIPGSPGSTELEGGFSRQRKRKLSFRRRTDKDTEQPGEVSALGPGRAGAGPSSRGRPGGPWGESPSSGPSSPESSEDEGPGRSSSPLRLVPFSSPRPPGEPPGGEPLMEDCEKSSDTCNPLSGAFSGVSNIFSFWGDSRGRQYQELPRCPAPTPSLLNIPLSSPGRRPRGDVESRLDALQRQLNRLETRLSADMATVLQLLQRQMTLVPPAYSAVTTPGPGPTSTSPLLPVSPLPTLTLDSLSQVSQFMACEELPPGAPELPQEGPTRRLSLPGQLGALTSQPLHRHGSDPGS

Row | Compound | hERG current change (%, negative = inhibition) at 10uM [%]
1 | Cc1ccc(C(=O)NCc2ccco2)cc1Br | -11.5
2 | COc1cc(NC(=O)Cn2c(C)cc3ccccc3c2=O)cc(OC)c1OC | 17.1
3 | CC(=O)NS(=O)(=O)c1ccc(N2C(=O)c3ccccc3C2=O)cc1 | 1.42
4 | CSc1nnc(-c2ccncc2)n1/N=C/c1cn(-c2ccccc2)nc1-c1ccc(Cl)cc1 | -39.6
5 | Cc1ccc(CO/N=C/C2=C(Cl)c3ccccc3CC2)cc1 | 16.8
6 | NC(=O)c1ccc(-n2nnnc2SCC(=O)Nc2ccccc2-c2ccccc2)cc1 | -58.1
7 | O=C(c1ccc2c(c1)OCO2)N1CCC2(CC1)Oc1ccc(F)cc1C(=O)C21CC(c2ccccc2)=NO1 (centres unmarked) | -0.0659
8 | COc1ccccc1NC(=O)Cc1noc(CN(C)Cc2cccs2)n1 | -15.2
9 | NC(=O)Cn1c(=O)n(CC(=O)N2CCCCC2)c(=O)c2sccc21 | 27.4
10 | CCc1cc(-c2n[nH]c(=S)n2C(C)c2ccccc2)cs1 (centres unmarked) | -4.68
11 | CCCC(c1nnnn1C(C)(C)C)N1CCN(C(=O)c2ccco2)CC1.Cl (centres unmarked) | -12.8
12 | O=C(CN1CCN(Cc2ccccc2F)C1=O)NCCN1CCOCC1 | 15.7
13 | CCN/N=C(\Cc1nc2ccccc2[nH]1)c1ccccc1 | -0.648
14 | COC(=O)c1ccc(COc2ccc(/C=N/NC(N)=S)cc2)o1 | -5.9
15 | O=C(c1ccc(N2C(=O)c3ccccc3C2=O)cc1)N1CCCCC1 | 10.5
16 | CCN(CC)c1nc(Oc2ccc(=O)[nH]n2)nc(N2CCOCC2)n1 | 1.91
17 | CCOc1cc(NC(=O)C(C)C)c(OCC)cc1NC(=O)Nc1ccccc1 | 15.2
18 | Clc1ccc(CO/N=C/c2cccs2)cc1 | 12.4
19 | CC(=O)c1cccc(N/C=C\c2nnnn2-c2ccc(F)cc2)c1 | 0.338

Row | Compound | hERG current change (%, negative = inhibition) at 10uM [%]
20 | O=C(Cc1ccc(S(=O)(=O)N2CCOCC2)s1)OCc1ccc(Cl)cc1 | -20.1
21 | CC(C)N(Cc1ccccc1)S(=O)(=O)N(C)C | 11.3
22 | COc1cc(NC(=O)c2ccccc2)c(OC)cc1NC(=O)Cc1ccccc1 | -1.3
23 | N=C1c2ccccc2CN1NC(=O)c1cccc(S(=O)(=O)N2CCOCC2)c1 | -40.6
24 | CC1=C(Nc2ccc(C(=O)O)cc2)C(=O)c2ccccc2C1=O | 26.1
25 | O=c1[nH]c2cc3c(cc2cc1CN(Cc1cccnc1)C(=S)NCc1ccco1)OCO3 | -52.5
26 | COc1ccc(/C=C(\NC(=O)c2ccccc2)C(=O)OC[C@@H]2CCC[N+]3(C)CCCCC23)cc1OC.[I-] (some centres unmarked) | 23.3
27 | Cc1ccc(C(=O)C2=C(O)C(=O)N(CC3CCCO3)C2c2ccccc2F)o1 (centres unmarked) | 19.2
28 | COc1cc(C2=NOC(C(=O)NCc3ccc(F)cc3)C2)cc(OC)c1OC (centres unmarked) | -23
29 | O=C(c1cc(-c2cccc(Cl)c2)on1)N1CCCCCC1 | -4.17
30 | O=C(OCCN1CCCCC1)c1ccc(O)cc1 | -35.4
31 | Cc1nn(CC(=O)N(C)C2CCC(C)CC2)c(C)c1S(=O)(=O)N(C)C (centres unmarked) | -7.54
32 | CNS(=O)(=O)c1ccc(NC(=O)Nc2ccc3c(c2)OCO3)cc1 | 17.8
33 | COc1ncnc2c1cnn2-c1ccccc1 | 20
34 | CC(=O)N1CCc2cc(S(=O)(=O)NC3CCCc4ccccc43)ccc21 (centres unmarked) | 11.4
35 | CCOC(=O)C(C)Sc1ncnc2c1nnn2-c1ccc(F)cc1 (centres unmarked) | 0.897
36 | O=C(c1c[nH]c2ccccc12)N1CCN(c2ccccc2)CC1 | -8.34
37 | O=C(O)/C=C/C(=O)N1N=C(c2ccco2)CC1c1ccco1 (centres unmarked) | 20
38 | CC1(C)Cc2c(cnn2-c2ccc(F)cc2)C(NC(=O)CCN2CCCCO2)C1 (centres unmarked) | -26.5

Row | Compound | hERG current change (%, negative = inhibition) at 10uM [%]
39 | Cc1ccc(NCC(=O)N/N=C/c2ccc(-c3cccc(C(F)(F)F)c3)o2)cc1 | 1.52
40 | Cc1c(C)n(C(=O)CSc2nncn2C)c2ccccc12 | 1.49
41 | CCOc1ccc(C(=O)N2CCN(S(=O)(=O)c3cccs3)CC2)c(OCC)c1 | -39.1
42 | CC1=C(C(=O)Nc2ccc(C)cc2C)C(c2ccc([N+](=O)[O-])cc2)n2ncnc2N1 (centres unmarked) | -1.29
43 | CCOC(=O)C1(C)NC(c2ccco2)C2C(=O)N(c3ccc(C)cc3)C(=O)C21 (centres unmarked) | 11.3
44 | COc1ccc(CCNC(=O)CNC(=O)Cn2cnc3sc(C)c(C)c3c2=O)cc1OC | -8.02
45 | OCC1(Cc2ccccc2F)CCCN(Cc2c(F)ccc(F)c2F)C1 (centres unmarked) | -55.5
46 | O=C(CNC(=O)c1cccs1)NCC(=O)OCc1ccccc1Cl | 2.85
47 | Nc1ccc(Sc2ccccc2Cl)nc1 | -10.5
48 | O=C(N/N=C/c1cccc([N+](=O)[O-])c1)C1CC(=O)N(c2ccc(Cl)cc2)C1 (centres unmarked) | -82.1
49 | CC(C)(C)N1CC(c2nc3ccccc3n2CCOc2ccccc2)CC1=O (centres unmarked) | -26.1
50 | CN1CCN(c2c(C#N)c(C(F)(F)F)nn2C)CC1 | 10.6
51 | COc1ccccc1/C=N/NC(=O)c1cc2c(OC)c(OC)ccc2[nH]1 | 14.1
52 | COc1ccc(/C=N/Nc2nn3cnnc3c3ccccc23)cc1 | -30.8
53 | COCCn1c(SC(C)C(=O)NCC2CCCO2)nc2sc3c(c2c1=O)CCC3 (centres unmarked) | -8.18
54 | O=C1NC(=O)N(CCc2ccc(F)cc2)C(=O)/C1=C/c1ccco1 | 12.4
55 | CN(C)c1nc(-c2cccnc2)nc(-c2ccc(Cl)cc2)c1C#N | 26.9
56 | CCN(C(=O)COC(=O)/C=C/c1cnc2ccccc2n1)c1ccccc1 | 3.24
